Experimental data reported in patent publication US20250057968A1, “ANTI-DLL3 ANTIBODY AND PHARMACEUTICAL USE THEREOF, AND ANTIBODY-DRUG CONJUGATE CONTAINING ANTI-DLL3 ANTIBODY” (Jiangsu Hengrui Pharmaceuticals Co., Ltd., priority 2021, published 2025).

Experiments:
mouse DLL3 = biological target: T1, mouse DLL3 (Mus musculus, UniProt O88516); test: Biacore antibody affinity assay, mouse DLL3; format: binding
T1 construct: purchased KACTUS DLL-MM103
T1 sequence (O88516 33-592): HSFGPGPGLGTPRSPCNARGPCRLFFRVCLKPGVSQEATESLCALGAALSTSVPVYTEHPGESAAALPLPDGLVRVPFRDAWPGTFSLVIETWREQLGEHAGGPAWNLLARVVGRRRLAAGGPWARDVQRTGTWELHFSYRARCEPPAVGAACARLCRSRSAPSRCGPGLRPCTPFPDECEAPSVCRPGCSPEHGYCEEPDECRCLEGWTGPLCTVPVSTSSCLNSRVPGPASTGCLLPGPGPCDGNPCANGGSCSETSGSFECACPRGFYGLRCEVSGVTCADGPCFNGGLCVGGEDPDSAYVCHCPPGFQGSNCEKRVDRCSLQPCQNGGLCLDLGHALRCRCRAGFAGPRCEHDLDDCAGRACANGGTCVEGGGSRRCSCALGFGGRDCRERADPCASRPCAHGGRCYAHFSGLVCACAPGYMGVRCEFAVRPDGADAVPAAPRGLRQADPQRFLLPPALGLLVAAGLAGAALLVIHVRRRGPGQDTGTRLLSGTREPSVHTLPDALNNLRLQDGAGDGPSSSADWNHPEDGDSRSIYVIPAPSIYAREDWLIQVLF
Excerpt: Test antibodies were affinity-captured with a Protein A biosensor chip (Cat. #29127556, Cytiva) for 18 seconds, and then the antigens human DLL3 (ACRO, DLL3-H52H4), cynomolgus monkey DLL3 (KACTUS, DLL-RM103), and mouse DLL3 (KACTUS, DLL-MM103) were allowed to flow over the surface of the chip for 180 seconds, followed by 600 seconds of dissociation. Reaction signals were detected in real time using a Biacore 8K (Cytiva) instrument to obtain association and dissociation curves. After the dissociation in each experimental cycle, the biosensor chip was washed and regenerated with a 10 mM glycine-hydrochloric acid solution (pH 1.5) (Cat. #BR-1003-54, Cytiva). A 1:1 model was fit to the data. The results are shown in Table 12-1, Table 12-2, and Table 12-3.

RatDLL3/CHO-s = biological target: T2, RatDLL3/CHO-s (Rattus norvegicus, UniProt O88671); test: Cell-level FACS binding assay, RatDLL3/CHO-s cells
T2 construct: Rat DLL3 full-length protein; expressed in transfected cells; host or cells: CHO-s (Invitrogen, R80007), lentiviral transduction
T2 sequence (O88671 33-589): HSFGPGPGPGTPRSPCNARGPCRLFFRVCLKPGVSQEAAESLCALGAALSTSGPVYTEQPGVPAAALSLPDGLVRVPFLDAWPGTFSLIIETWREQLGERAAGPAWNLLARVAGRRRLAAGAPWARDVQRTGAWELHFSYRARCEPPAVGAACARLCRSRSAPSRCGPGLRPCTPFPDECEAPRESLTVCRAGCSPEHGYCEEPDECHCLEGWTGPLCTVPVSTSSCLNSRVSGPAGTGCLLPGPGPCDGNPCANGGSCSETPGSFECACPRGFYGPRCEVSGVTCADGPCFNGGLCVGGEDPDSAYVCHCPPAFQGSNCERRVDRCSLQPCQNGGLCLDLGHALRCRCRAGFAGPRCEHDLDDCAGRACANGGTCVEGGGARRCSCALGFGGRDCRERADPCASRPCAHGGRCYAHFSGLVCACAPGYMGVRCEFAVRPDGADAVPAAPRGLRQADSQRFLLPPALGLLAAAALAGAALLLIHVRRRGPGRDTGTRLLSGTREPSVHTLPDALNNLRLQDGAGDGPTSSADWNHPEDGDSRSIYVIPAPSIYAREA
Protocol: Cells of the DLL3-expressing small cell lung cancer cell lines H1184 (ATCC, Cat. No. CRL-5858), DLL3/H82, cynoDLL3/CHO-s, and RatDLL3/CHO-s were suspended at 1×10^6/mL in FACS buffer (1% BSA+pH 7.4 PBS), and the cell suspensions were added to a 96-well round-bottom plate (Corning, 3795) at 100 μL/well. The plate was centrifuged at 300 g for 5 min, and the supernatant was removed. Different concentrations of test antibodies were added at 100 μL/well. The plate was incubated in the dark in a refrigerator at 4° C. for 1 h. After 3 washes by centrifugation at 300 g, working concentrations of APC anti-human IgG Fc (BioLegend, 410712) or PE F(ab′)2-goat anti-human IgG (invitrogen, H10104) were added. The plate was incubated in the dark in a refrigerator at 4° C. for 40 min. After 3 washes by centrifugation at 300 g, the geometric mean fluorescence intensity was measured on an Invitrogen flow cytometer, and the EC50 values of the antibodies in binding to DLL3-expressing cells were calculated. The results are shown in Table 11-1, Table 11-2, Table 11-3, and FIG. 1A to FIG. 1C.

B1: Hu100: humanized anti-DLL3 antibody, heavy chain SEQ ID NO: 60, light chain SEQ ID NO: 61 (hAb100VH1 + hAb100VL1) (antibody)
heavy: EVQLVESGGGLVKPGGSLRLSCAASGFTFSDSGMHWIRQAPGKGLEWVSYISSGSSTIHYADTVKGRFTISRDNAKNSLYLQMNSLRAEDTAVYYCASPLYYYGRSYNAVAYWGQGTTVTVSS[human IgG1 constant region not written out]
light: DIQMTQSPSSLSASVGDRVTITCHASQNINVWLSWYQQKPGKVPKLLIYKASDLHTGVPSRFSGSGSGTDFTLTISSLQPEDVATYYCQQGQSYPLTFGGGTKVEIKRTVAAPSVFIFPPSDEQLKSGTASVVCLLNNFYPREAKVQWKVDNALQSGNSQESVTEQDSKDSTYSLSSTLTLSKADYEKHKVYACEVTHQGLSSPVTKSFNRGEC
modifications: Hu100
In the case of B1, the “binding to mouse DLL3 (in words)” value (mouse DLL3) is reported as “did not bind”, the “KD (M)” value (mouse DLL3; mouse DLL3) is reported as “No binding” and the “binding to cells expressing rat DLL3 (in words)” value (RatDLL3/CHO-s) is reported as “did not bind; also recorded: No binding”.

B2: Hu6: humanized anti-DLL3 antibody, heavy chain SEQ ID NO: 58, light chain SEQ ID NO: 59 (hAb6VH12 + hAb6VL4) (antibody)
heavy: EVQLVQSGSELKKPGASVKVSCKASGYTFTDYYMNWVRQAPGQGLEWMGIINPYSGVTIYNHKFKGRFALSVDKSSNTAYLQISSLKAEDTAVYYCARQDSLLDYAMDYWGQGTTVTVSS[human IgG1 constant region not written out]
light: DIQMTQSPSSLSASVGDRVTITCHASQGISGNMGWLQQKPGKAPKGLIYHGANLEDGVPSRFSGSGSGADYTLTISSLQPEDFADYYCVQYAQFPYTFGGGTKVEIKRTVAAPSVFIFPPSDEQLKSGTASVVCLLNNFYPREAKVQWKVDNALQSGNSQESVTEQDSKDSTYSLSSTLTLSKADYEKHKVYACEVTHQGLSSPVTKSFNRGEC
modifications: Hu6
Molecule B2 has an Emax (RatDLL3/CHO-s) of 2112.

“Also recorded” adds a separate entry of the source.
